{"source": "the supplement of paper PMC3334620", "note": "Over roughly 33,000 sequences, “E-score (-0.5 to 0.5)” has its median near -0.036; the highest 2% begin near 0.37. This is one part of the list."}
{"molecular_target": "T1, Yer064c (UniProt P40041)", "T1 sequence": "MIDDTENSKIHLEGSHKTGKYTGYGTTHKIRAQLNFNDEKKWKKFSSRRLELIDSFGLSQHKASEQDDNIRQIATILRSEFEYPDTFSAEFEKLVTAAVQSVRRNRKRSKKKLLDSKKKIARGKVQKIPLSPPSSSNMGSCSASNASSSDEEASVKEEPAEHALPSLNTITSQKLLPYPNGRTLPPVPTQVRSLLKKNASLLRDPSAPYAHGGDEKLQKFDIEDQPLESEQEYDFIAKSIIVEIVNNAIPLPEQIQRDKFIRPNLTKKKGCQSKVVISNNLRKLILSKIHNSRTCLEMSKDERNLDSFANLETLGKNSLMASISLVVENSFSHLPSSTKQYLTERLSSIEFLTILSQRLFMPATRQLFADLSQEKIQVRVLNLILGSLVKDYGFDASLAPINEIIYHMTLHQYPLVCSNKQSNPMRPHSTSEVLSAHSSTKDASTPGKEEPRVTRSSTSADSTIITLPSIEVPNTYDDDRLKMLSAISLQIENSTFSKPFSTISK", "experiment": "PBM E-score (8-mer binding enrichment) (E-score (-0.5 to 0.5)); higher = stronger / more preferred TF binding; most listed sequences are background and not binding sites", "conditions": "protein concentration: 200 nM; construct: GST-full length", "how_it_was_run": "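Masliner-normalised scans of fluorescent anti-GST signal were the basis for scoring. That signal came from GST-tagged yeast transcription factors applied at about 100-200 nM to double-stranded universal all-10-mer Agilent arrays on fresh or once-stripped slides. Each ungapped eight-base word, pooled with its reverse complement, received an E-score from the Universal PBM Analysis Suite.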"}
{"sequence": "TCACGCCA", "PBM E-score": 0.193}
{"sequence": "AGACTCCA", "PBM E-score": 0.323}
{"sequence": "AAGTACCA", "PBM E-score": 0.00037}
{"sequence": "TAGTTGAA", "PBM E-score": 0.127}
{"sequence": "TATAGGCA", "PBM E-score": -0.158}
{"sequence": "ATAACAGC", "PBM E-score": -0.129}
{"sequence": "CCACGTTC", "PBM E-score": -0.218}
{"sequence": "AAGCTGGT", "PBM E-score": -0.0556}
{"sequence": "TGAAGCCA", "PBM E-score": 0.114}
{"sequence": "CTCTCAAA", "PBM E-score": 0.18}
{"sequence": "GGTAAGGA", "PBM E-score": -0.0554}
{"sequence": "ATTGCTTG", "PBM E-score": 0.102}
{"sequence": "CGTCCACC", "PBM E-score": -0.236}
{"sequence": "AAAACAAT", "PBM E-score": 0.0653}
{"sequence": "CATTGGGC", "PBM E-score": -0.112}
{"sequence": "GACTTCAC", "PBM E-score": 0.31}
{"sequence": "ATCCTTCA", "PBM E-score": 0.115}
{"sequence": "GCGAGCGC", "PBM E-score": -0.169}
{"sequence": "GCACTCAC", "PBM E-score": 0.0283}
{"sequence": "GGCTTAAA", "PBM E-score": 0.0239}
{"sequence": "AAAATCGT", "PBM E-score": -0.0697}
{"sequence": "CAGAGCGC", "PBM E-score": -0.0936}
{"sequence": "AGATCCAT", "PBM E-score": -0.0304}
{"sequence": "GTGCCAAC", "PBM E-score": -0.158}
{"sequence": "ATGGGAGA", "PBM E-score": -0.0704}
{"sequence": "CTGTTTCA", "PBM E-score": 0.0201}
{"sequence": "TAAACTTA", "PBM E-score": 0.201}
{"sequence": "AGGCGCGG", "PBM E-score": -0.293}
{"sequence": "GGAGAACC", "PBM E-score": -0.271}
{"sequence": "ATCCCTGA", "PBM E-score": 0.0465}
{"sequence": "AGGGTCCC", "PBM E-score": -0.371}
{"sequence": "CCGAAAAG", "PBM E-score": -0.0303}
{"sequence": "GCGAAGCC", "PBM E-score": -0.0544}
{"sequence": "CTGTCTCA", "PBM E-score": 0.238}
{"sequence": "CCGGCTCC", "PBM E-score": -0.373}
{"sequence": "AGGGCCAC", "PBM E-score": -0.169}
{"sequence": "AGTGCGGA", "PBM E-score": 0.0375}
{"sequence": "CAATATCC", "PBM E-score": -0.178}
{"sequence": "GTTCGACA", "PBM E-score": 0.02}
{"sequence": "ACGTAATG", "PBM E-score": -0.0682}
{"sequence": "AGCTTTGG", "PBM E-score": -0.0788}
{"sequence": "AAACAGAT", "PBM E-score": 0.0558}
{"sequence": "ATCCGTCC", "PBM E-score": -0.115}
{"sequence": "CGGGTACC", "PBM E-score": -0.097}
{"sequence": "GAAACTTC", "PBM E-score": -0.11}
{"sequence": "ATTTCCAC", "PBM E-score": 0.0283}
{"sequence": "ATTAAAGG", "PBM E-score": 0.0794}
{"sequence": "AGCTCTTG", "PBM E-score": -0.0716}
{"sequence": "ACGAACCG", "PBM E-score": -0.147}
{"sequence": "CCCTTACC", "PBM E-score": -0.241}
{"sequence": "ACGGCGGC", "PBM E-score": -0.217}
{"sequence": "AGTGCTGA", "PBM E-score": 0.0779}
{"sequence": "ATATATGA", "PBM E-score": 0.226}
{"sequence": "AACAACGC", "PBM E-score": -0.208}
{"sequence": "CGGTCCAG", "PBM E-score": -0.129}
{"sequence": "AATATTAA", "PBM E-score": 0.0521}
{"sequence": "AGCCTAAT", "PBM E-score": -0.0714}
{"sequence": "GACGTACC", "PBM E-score": -0.142}
{"sequence": "CTTTCGTA", "PBM E-score": -0.053}
{"sequence": "ACGCTAGG", "PBM E-score": -0.0312}
{"sequence": "GCCAGGCA", "PBM E-score": -0.226}
{"sequence": "GTATGATA", "PBM E-score": 0.0434}
{"sequence": "CACCCTTA", "PBM E-score": 0.00989}
{"sequence": "ACGTCAAA", "PBM E-score": 0.0154}
{"sequence": "AAGCTTGG", "PBM E-score": -0.0782}
{"sequence": "ACGCCATG", "PBM E-score": -0.0708}
{"sequence": "AACCACCT", "PBM E-score": 0.0325}
{"sequence": "CGCTGGTA", "PBM E-score": -0.0555}
{"sequence": "AGGAGGAA", "PBM E-score": -0.137}
{"sequence": "AACGATCG", "PBM E-score": 0.0139}
{"sequence": "ATACTGGG", "PBM E-score": -0.108}
{"sequence": "AACTAGTC", "PBM E-score": 0.355}
{"sequence": "ACCCAAGT", "PBM E-score": -0.00665}
{"sequence": "AGCGTGAC", "PBM E-score": 0.209}
{"sequence": "CAGGAACC", "PBM E-score": -0.168}
{"sequence": "CTCTTCCC", "PBM E-score": -0.152}
{"sequence": "CACGTCAA", "PBM E-score": 0.155}
{"sequence": "AATTGGTC", "PBM E-score": -0.0619}
{"sequence": "AGATCTAT", "PBM E-score": 0.0269}
{"sequence": "ATATCCAT", "PBM E-score": -0.136}
{"sequence": "AGGGGTCC", "PBM E-score": -0.223}
{"sequence": "ACCGTTTG", "PBM E-score": -0.0394}
{"sequence": "TGAGCGCA", "PBM E-score": -0.173}
{"sequence": "CGCCCAGA", "PBM E-score": -0.205}
{"sequence": "AGGGCCCC", "PBM E-score": -0.0403}
{"sequence": "CCTGGCGA", "PBM E-score": -0.211}
